This note sets out measurements from article PMC11790949, “A multiplex method for rapidly identifying viral protease inhibitors” (Molecular Systems Biology, 2025).

The target in the first assay is HCoV-NL63-PLP2 (Human coronavirus NL63, UniProt P0C6X5). Briefly: Multiplex pooled yeast screen (DNA-barcoded models, magratio). It counts as cell-based. The settings on record: HCoV-NL63-PLP2 model; library screen at 25 μM; 1 = inhibition comparable to positive control.
`NC(N)=NC(=S)Nc1ccc(Cl)cc1` [NSC403374]: the magratio came to 0.3387.

Consider `Cc1cc(N(C)C)ccc1N=Nc1ccc2ncccc2c1` [NSC680516], for which the magratio stood at 0.2006.

In the case of `CNC(=O)Oc1c(C)[nH]ccc1=O` [NSC287495], the magratio came to 0.3129.

Another assay concerns the target HCoV-OC43-3CL (Human coronavirus OC43, UniProt P0C6X6). Described as above. As to conditions: HCoV-OC43-3CL model; library screen at 25 μM; 1 = inhibition comparable to positive control. The assay is classed as cell-based.
As to `CCOC(=O)Nc1ccc2nc(-c3cscn3)[nH]c2c1` [NSC299514], the magratio was determined as 0.3203. Take `c1ccc2c(c1)-c1cccc3cncc-2c13` [NSC60419]: the magratio was found to be 0.4426. Consider `N#Cc1ccc(NC2c3ccccc3CC2O)cc1` (stereo not drawn) [NSC69421], for which the magratio amounted to 0.4051.
